Measured values from the RNAGym collection of RNA variant scans (doi:10.7554/elife.90254).
The source gives no read counts; variants with many changes may rest on few reads.

B1: LINE1-full (parent)
chain: UACGUAGGUGGUUUUCCCCUGAUAGUGCUAAGGGGGCCUGGAAGUUUGGACUGGGCAGAGCUCAACACAGCGUGGCAAAGUGGCUGUGGCUAGACUGCCUCUCUGGAUUCCUCGUCACUCAGCAGGGCAUCUCUGAGAGAAAUGCC

Variants of: B1
Assay: self-cleavage, relative activity (ratio to wild type); higher = more cleavage; in vitro, sequencing; the parent is a self-cleaving ribozyme

Row | Variant | self-cleavage
1 | U13A U87A U108C | 0.08
2 | U9A A94G G114A | 0.26
3 | U20C U62C U132A A140G | 0.03
4 | A79G U85C A121G U132C | 0
5 | U45C A69U U132C U143A | 0.1
6 | A42U A43G U112C A141U | 0.25
7 | A2G U14A U20A G54A A65G | 0.21
8 | A30G G34A A67G | 0
9 | G4A A67U U81C A107U A124G | 0
10 | G27A A50U A57U U85A | 0.04
11 | U39C U130C A142G | 1.78
12 | U13C U73C U102C C123U | 1.56
13 | U45C A59G U96A U143A | 0.07
14 | U73A A77U A129G U134C | 0.43
15 | U26C A69G A78U U100C U112C | 0
16 | U5C U12C U81A U85C U108C | 0.84
17 | U1C G11A U46C | 0.75
18 | A129U A140G U143C | 1.53
19 | A2G U14G A22G | 1.84
20 | U12C G25A U26A A42G U45C | 1.27
21 | G40A A65G A78G A117G A142U | 0

Row | Variant | self-cleavage
22 | A31G A65U U115C U130A | 0.37
23 | U29C C71A A138G | 0.43
24 | U12C U20G U96C | 0.41
25 | A43G A92G A141G | 0
26 | U39C A50U C101U U104C A140G | 0.82
27 | U46C G49A U104C | 1.45
28 | U1C G4A U15C A117G G139A | 0
29 | G4A A22G A24U | 0
30 | U39C U73C A94G G105A | 0.53
31 | A30G A138G A140U | 1.06
32 | U23C A30U A92G | 0.16
33 | U62C U96C A138G | 0.09
34 | U14C A78G A117U | 0.9
35 | U12G G27C A138G A141G | 0.9
36 | G74A C120A A124U U134A | 1.96
37 | A6G U20C U39C | 0
38 | G44A U85C A141G U143C | 0.1
39 | U13C A124U A138G | 1.06
40 | U9C U45C G55C U96G G106A C120U A142G | 0
41 | A57G C71U C131U | 0.55
42 | U20C G127A A138C A142G | 0.84

Row | Variant | self-cleavage
43 | U13C A69G A142G | 0.39
44 | U87A A94G A141G | 0.18
45 | A30U U73G U104A | 0.84
46 | A65U U81A A141G A142G | 0.38
47 | C63U U115C A121G A136U | 0.77
48 | U62C U104A C116A | 0.03
49 | A6G G53A U108C | 1.04
50 | U39C G44A A57U U73C U130C | 0.11
51 | U20C A77U G125U A136G | 1.42
52 | U112C A138U A142G | 1.66
53 | U20C C56U U96C G114A | 0.01
54 | U39C U46C A67G | 0.15
55 | U14A A43G A77G | 0
56 | U15C C66U U119G U130C A142G | 0
57 | U46C A78G U130A G137U | 1.53
58 | G4A A92G U100C A124G G125U | 0
59 | U26A U108A G114A U134C | 0.22
60 | C17U G58U U85C U102C | 0
61 | U12C A59G A79G | 0
62 | U5C U20C U104C U143C | 0.48
63 | A65G U96A U112C U115A A138U | 0

Row | Variant | self-cleavage
64 | G44A A129U A136G A142G | 1.59
65 | U14C C19U A42U | 0.94
66 | U132C A141G U143G | 0.78
67 | U15C U45C G49A | 1.4
68 | U26A A64G G105A | 0.18
69 | A22G A42G A78G | 0.57
70 | A57U U119C A136G | 0.21
71 | U9C U14C U23C G72A U73C U115A C123U A136G | 2.05
72 | U91C U104C U108C | 2.3
73 | C71U A121G U143C | 1.91
74 | U29A U39C G72A C90U G105A C128U U130C | 0.03
75 | A6G U39C U130C | 0.77
76 | U39A A57C C145U | 0.13
77 | U20C A30G U52C C71U | 0.63
78 | G35A U62C C68A | 0.03
79 | U23C A30G U109A | 0.54
80 | U14C U100C U143C | 1.31
81 | U9C U12A U132C | 0.96
82 | U13G G41A C56U A64U U73A A77G A92G | 0.05
83 | A69G U100A U108C | 0.6
84 | A6G U109C A140U | 0.44
